About 150 (0.038%) of roughly 390,000 compounds were called active. Inconclusive means that the source gave no clear call. Such entries were picked first, then a sample of the others. Calls follow the shape of the dose curve; as a rule, active = well fitted inhibition curve with a large enough effect; inconclusive = small, poorly fitted or top-dose-only effect; inactive = no such curve, though single readings can be large or run the other way. A potency beside an inconclusive call is a rough fit, not a confirmed value. Non-standard residues stand in square brackets, D forms with d. Residues, ends and D or L forms follow the SMILES beside them. *: point of attachment. Phe(4-Me) = Cc1ccc(C[CH](N)C(=O)O)cc1; Bz = O=C(c1ccccc1)*
What follows are compounds tested against Regulator of G-protein signaling 4 (Homo sapiens) (UniProt P49798) (assay: Inhibitors of Regulator of G Protein Signaling (RGS) 4: qHTS). Settings: Transcreener GDP fluorescence polarization, RGS4-accelerated GTP hydrolysis; series mostly up to 114 µM.
UniProt P49798, sequence (P49798 whole entry, looked up): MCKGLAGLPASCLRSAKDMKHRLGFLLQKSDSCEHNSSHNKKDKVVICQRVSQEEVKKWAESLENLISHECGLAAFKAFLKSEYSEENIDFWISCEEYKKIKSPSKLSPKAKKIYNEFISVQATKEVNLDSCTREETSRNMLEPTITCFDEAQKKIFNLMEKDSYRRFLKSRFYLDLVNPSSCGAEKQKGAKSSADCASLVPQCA
How it was run: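 MLSMR compounds (23 nl, pin-transferred) preincubated 10 min at room temperature with a 500nM (2x) first reagent, then RGS4 at 900nM (2x) plus Transcreener GDP mix added; fluorescence polarization (620/688 nm) read before and after 90 min at 30 °C.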
Also: nearly all actives have a fitted effect of over 75% in size.
Potency is read from the fitted curve at half-maximal effect; tags tell the direction and shape of the fitted curve.

Structure (SMILES)	Potency
O=C(CNC(=O)c1ccco1)OCC(=O)c1ccc2c(c1)CCCC2	inactive
CC(=O)C(/C=N/c1cc(-c2ccc(C)cc2)nn1-c1ccccc1)=C(\C)O	inactive
Cc1ccc2nc(/C(C#N)=C\c3cc(O)ccc3[N+](=O)[O-])[nH]c2c1	inconclusive: 50.1 µM [inhibitor, partial curve, poor fit]
COc1cc(CN2CCc3c([nH]c4ccccc34)C2)cc(OC)c1	inconclusive: 50.1 µM [inhibitor, partial curve, poor fit]
COc1ccc(/C=N/NC(=O)C(O)(c2ccccc2)c2ccccc2)cc1OC	inconclusive: 89.1 µM [inhibitor, single point]
CC(=O)Nc1n[nH]c(=S)s1	inconclusive: 79.4 µM [inhibitor, partial curve, poor fit]
O=C(O)c1ccc(N2CC3CC(C2)c2cccc(=O)n2C3)c(NC(=S)Nc2ccc(Cl)cc2Cl)c1 (stereo not drawn)	inconclusive: 50.1 µM [inhibitor, partial curve, poor fit]
Cc1cc(/C=C2\SC(=S)NC2=O)c(C)n1-c1ccccc1	inactive
CCOCc1c(C(=O)N2CCN(CCOc3ccc(Cl)cc3)CC2)oc2ccccc12	inactive
CC(C)c1ccc2c(c1)C(N1CCN(C)CC1)Cc1cccnc1S2 (stereo not drawn)	inactive
CCCCCNC(=O)c1cccc(S(=O)(=O)N2CC3(C)CC2CC(C)(C)C3)c1 (stereo not drawn)	inactive
CC(=O)Oc1ccc(N2C(=O)C3C4C=CC(CO)(O4)C3C2=O)cc1 (stereo not drawn)	inconclusive: 79.4 µM [inhibitor, partial curve, poor fit]
C/C(=N\NC(=O)c1ccc(O)cc1)c1cccc(NC(=O)c2ccc(Cl)cc2)c1	inconclusive: 100 µM [inhibitor, single point]
N#CC1(Nc2ccc(S(N)(=O)=O)cc2)CCCC1	inconclusive: 44.7 µM [inhibitor, partial curve, poor fit]
COc1cc2c(cc1NC(=O)CSc1ccccc1)oc1ccccc12	inactive
CCc1ccc(CN(C)C(=O)c2cc(COc3c(F)cccc3F)on2)cc1	inconclusive: 31.6 µM [inhibitor, full curve, poor fit]
Cc1ccc(-n2nc3ccc(NC(=O)/C=C/c4ccco4)cc3n2)cc1	inconclusive: 50.1 µM [inhibitor, partial curve, poor fit]
CCOc1ccc(-c2nn3c(-c4ccc(F)cc4)nnc3s2)cc1	inactive
COc1nccc(-c2c(-c3ccc(F)cc3)ncn2C2CCC(O)CC2)n1 (stereo not drawn)	inconclusive: 4.74 µM [inhibitor, partial curve, poor fit]
Cc1ccccc1C(CC(=O)c1cccs1)C(C#N)C#N (stereo not drawn)	inconclusive: 50.1 µM [inhibitor, partial curve, poor fit]
Cc1ccc(-n2ncc(C(=O)NCCCN3CCN(C)CC3)c2C2CCN(C(=O)OC(C)(C)C)CC2)cc1	inconclusive: 89.1 µM [inhibitor, single point]
Cc1ccc2ncnc(NCc3ccco3)c2c1	inconclusive: 79.4 µM [inhibitor, single point]

Structure (SMILES)	Potency
CC(NS(=O)(=O)c1ccccc1)C(=O)Nc1nccs1 (stereo not drawn)	inconclusive: 79.4 µM [inhibitor, single point]
COc1cccc(C(=O)/C=C/c2ccc(OCC#N)c(OC)c2)c1	inconclusive: 89.1 µM [inhibitor, partial curve, poor fit]
CC(C)C(=O)Nc1ccc2c(c1)nc1n2CCSC1	inconclusive: 79.4 µM [inhibitor, single point]
COc1ccc([N+](=O)[O-])cc1N(CC(O)CN1CCCCC1)S(=O)(=O)c1ccccc1 (stereo not drawn)	inactive
Cc1oc2ncn(CC(C)C)c(=O)c2c1C(=O)NCCCN1CCCCC1C (stereo not drawn)	inactive
CCN1CCN(C(=O)c2ccc3c(c2)N(Cc2ccc(Cl)cc2)C(=O)c2ccccc2S3=O)CC1 (stereo not drawn)	inactive
COCc1cc(C)nc(OCC(=O)N/N=C/c2ccc(-c3cc([N+](=O)[O-])ccc3Cl)o2)c1C#N	inconclusive: 79.4 µM [inhibitor, single point]
O=C(COc1ccc(Cl)cc1Cl)NC(=O)NC1CCCC1	inactive
CCc1noc(C)c1C(=O)N1CCN(S(=O)(=O)c2c(C)c(C)cc(C)c2C)CC1	inactive
COc1ccccc1CNC(=O)C12CC3CC(CC(C3)C1)C2	inconclusive: 50.1 µM [inhibitor, partial curve, poor fit]
CC1=C/C(=N\OS(=O)(=O)c2ccccc2)C=CC1=O	inconclusive: 28.2 µM [inhibitor, partial curve, poor fit]
CCOc1ccc(Cc2c(Cl)nc(SC)nc2N(C)C)cc1	inactive
O=C(CSc1ncc2c(n1)-c1cc(Cl)ccc1N(Cc1ccccc1)S2(=O)=O)NCc1ccccc1	inconclusive: 56.2 µM [inhibitor, partial curve, poor fit]
O=c1[nH]c2ccc(Cl)cc2c(-c2ccccc2)c1SC(=S)N1CCCCC1	inconclusive: 89.1 µM [inhibitor, partial curve, poor fit]
Cc1ccc(CC(NC(=O)c2ccccc2)C(=O)NC(Cc2ccccc2)C(=O)O)cc1 (stereo not drawn) (Bz-[Phe(4-Me)]-Phe-OH; configuration not given here)	inconclusive: 89.1 µM [inhibitor, single point]
CC(C)C[C@@H](N)C(=O)O	active: 37.7 µM
Cc1cc(SCC(=O)Nc2ccc(C(F)(F)F)cc2)nc(=O)[nH]1	inactive
Cc1ccc(N(Cc2ccc(C(=O)NC3CCCCC3)cc2)S(C)(=O)=O)cc1C	inactive
O=C(N/C(=C\c1ccc(-c2ccccc2)o1)C(=O)N1CCOCC1)c1ccccc1	inconclusive: 79.4 µM [inhibitor, partial curve, poor fit]
COC(=O)c1ccc(COC(=O)c2ccc(S(=O)(=O)N3CCC(C)CC3)cc2)o1	inconclusive: 56.2 µM [inhibitor, partial curve, poor fit]
O=C(c1ccccc1)c1ccc(OCCOCCN2CCN(Cc3ccccc3)CC2)cc1	inactive
